The subject of test [1] is human dermal fibroblasts; HDFs. The note with it: calcification induction medium added with ALK5 inhibitor II. How it is done:
After washing 3 times with PBS(−), Blocking One was added, and the mixture was incubated at room temperature for 60 min.

Test [2] deals with human dermal fibroblasts; HDFs. Nature of the test: Real-time RT-PCR of Sox9 and Aggrican in cartilage induction medium, Example 8. As to conditions: ALK5 inhibitor II 2 μM, Cyclic Pifithrin-α 5 μM, day 18, FIG. 8. It counts as cell-based. How it is done: The concentrations of the compounds are as follows: • Cyclic Pifithrin-α: 5 μM • ALK5 inhibitor II: 2 μM.
Test [3] deals with human dermal fibroblasts; HDFs. Nature of the test: BODIPY staining and fluorescence intensity, Example 15. Type of test: cell-based. As to conditions: compound 2 μM in addition to T3 1 nM and Rosiglitazone 1 μM; day 14; FIG. 15A, 15B. As to the method: The concentrations of the additives are as follows: • T3: 1 nM • Rosiglitazone: 1 μM • D4476: 2 μM • SB431541: 2 μM • ALK5 inhibitor II: 2 μM.
The cells were fixed with 4% para-formaldehyde, washed with PBS(−), reacted for 5 min with BODIPY 493/503 (Invitrogen)/PBS solution at room temperature and washed 3 times with PBS. The cells were photographed with a fluorescence microscope at ×200 magnification and the fluorescence intensity was measured.

Test [4] deals with Human normal skin fibroblast cell strain HDFs. The note with it: general medium added with 4 μM ALK5 inhibitor II for 3 or 7 days; FIG. 32. As to the method:
Human normal skin fibroblast cell strain HDFs were cultured in 60 mm culture dish and cultured in general medium (−). HDFs were cultured in the general medium added with 4 μM ALK5 inhibitor II for 3 or 7 days. Total RNA was recovered from these cells by ISOGEN II. The mRNA expression pattern of each cell was analyzed genome-wide by using a DNA chip (Affymetrix).

The test system of test [5] is human dermal fibroblasts; HDFs. As to conditions: day 14, FIG. 41. How it is done: The adipocyte induction medium is DMEM added with 1 nM T3, 1 μM Rosiglitazone, 0.5 mM 3-isobutyl-1-methylxanthine (IBMX), 0.5 μM dexamethasone, 1 μg/mL Insulin and 10% FBS.
Once every 2 days, the culture medium was exchanged with a fresh one.

Test [6] deals with Human Epidermal Keratinocyte; NHEK (AD). As to conditions: K-osteoblast induction medium, 4 μM until Day 14; day 28; FIG. 48.
The test system of test [7] is human dermal fibroblasts; HDFs. Nature of the test: Real-time PCR of AdipoQ, FABP4, PPAR-γ in WA medium, Example 47. Type of test: cell-based. The note with it: day 12. As to the method: On day 12, RNA was recovered from the cells. Real-time PCR was performed using TaqMan probes and Primers respectively specific to AdipoQ, FABP4 (mature adipocyte marker), and PPAR-γ (preadipocyte marker) gene, and mRNA was quantified.

Test [8] concerns human dermal fibroblasts; HDFs. Nature of the test: Bodipy staining quantification in WA medium, four inhibitors, Example 49. The note with it: 1 μM Rosiglitazone or 16 μM ALK5 inhibitor II, day 12, FIG. 53. Type of test: cell-based.
The test system of test [9] is human dermal fibroblasts; HDFs. Nature of the test: Real-time PCR of AdipoQ, FABP4, PPAR-γ, four inhibitors with Rosiglitazone, Example 50. As to conditions: WA medium added with 1 μM Rosiglitazone and 16 μM compound; day 12; FIG. 54. It counts as cell-based. The text has this:
On day 12, RNA was recovered from the cells and, in the same manner as in Example 47, mRNA of AdipoQ, FABP4 (mature adipocyte marker), and PPAR-γ (preadipocyte marker) was quantified.

For test [10], the system named is human dermal fibroblasts; HDFs. The note with it: skeleton muscle cell growth medium added with 2 μM ALK5 inhibitor II and 2 μM D4476; day 28; FIG. 10.
Test [11] has as its system human dermal fibroblasts; HDFs. The note with it: 4 μM in calcification induction medium; day 13; FIG. 21.
For test [12], the system named is human dermal fibroblasts; HDFs. As to conditions: 4 μM in MDI medium; day 14; FIG. 23.
Test [13] concerns human dermal fibroblasts; HDFs. The note with it: 4 μM in cartilage induction medium; day 21; FIG. 25.
The test system of test [14] is human dermal fibroblasts; HDFs. The note with it: 4 μM in cartilage induction medium; day 21; FIG. 26.
Test [15] concerns Human fibroblast aHDF45. The note with it: SC medium added with 4 μM; days 8 and 14; FIG. 55.
Where [16] appears, read: WA medium, 16 μM ALK5 i II and 1 μM Rosiglitazone, FIG. 51.

With `Cc1cccc(-c2n[nH]cc2-c2ccc3ncccc3n2)n1` [ALK5 inhibitor II, 2-(3-(6-Methylpyridin-2-yl)-1H-pyrazol-4-yl)-1,5-naphthyridine], the “conversion of human fibroblast to osteoblast, immunostaining of Runx2” value in test [1] (day 19, FIG. 6) is recorded as “converted human fibroblast to osteoblast expressing Runx2”. Besides, the “conversion of human fibroblast to osteoblast, immunostaining of Osteocalcin” value in test [1] (day 24, FIG. 4) is on record as “converted human fibroblast to osteoblast producing osteocalcin”. Further, in test [2], the “conversion of fibroblast to chondrocyte, Sox9 and Aggrican mRNA” value was “can convert human normal skin-derived fibroblast to chondrocyte expressing Sox9 and Aggrican gene”. Further, the “conversion of fibroblast to brown adipocytes, BODIPY staining and fluorescence intensity” value in test [3] is listed as “converted fibroblast to brown adipocytes having lipid droplets stained with BODIPY”. In addition, the “conversion of fibroblasts to mesenchymal stem cells, expression level of MSC marker genes (DNA chip)” value in [4] is reported as “converted fibroblasts to mesenchymal stem cells (MSCs)”. Besides, the “conversion of fibroblast to brown adipocyte, UCP1 mRNA, exposure 0-8 days” value in [5] (4 μM for 0-8 days, thereafter medium free of ALK5 inhibitor II) is “can be more strongly induced”. Further, the “conversion of fibroblast to brown adipocyte, UCP1 mRNA” value in [5] (4 μM in adipocyte induction medium) is reported as “converted fibroblast to brown adipocyte strongly expressing UCP1 gene”. Also, the “conversion of epidermal keratinocyte to osteoblast, Runx2 mRNA” value in test [6] is “converted normal human epidermal keratinocyte to osteoblast expressing Runx2 gene”. Further, the “conversion of human fibroblast to white adipocyte (mRNA markers)” value in [7] (WA medium added with ALK5 inhibitor II) is reported as “converted human fibroblast to white adipocyte”. Further, in [7] (setting [16]), the “AdipoQ and FABP4 mRNA expression, co-addition of ALK5 i II and Rosiglitazone” value is given as “strongly induced to express”; the “PPAR-γ mRNA expression, co-addition of ALK5 i II and Rosiglitazone” value was “strongly induced to express”. The “AdipoQ and FABP4 mRNA expression, ALK5 i II alone” value in [7] (WA medium, 16 μM alone, FIG. 51) is given as “mildly induced to express”. The “conversion of fibroblast to white adipocyte (mRNA markers), co-presence of Rosiglitazone” value in test [7] (WA medium, ALK5 inhibitor II with Rosiglitazone) was “more strongly induced conversion of fibroblast to white adipocyte”. Also, the “PPAR-γ mRNA expression, single addition” value in test [7] (WA medium, ALK5 i II 16 μM or Rosiglitazone 1 μM, FIG. 51) is recorded as “moderately induced to express”. In addition, in test [8], the “fat accumulation (BODIPY positive cells, area, intensity), single addition” value is “showed accumulation of a small amount of fat”. Moreover, the “mRNA expression of AdipoQ, FABP4 and PPAR-γ” value in [9] is “most strongly expressed all of these three genes”. Besides, in test [10], the “conversion of fibroblast to myoblast, MyoD1 and Myogenin mRNA” value was “can convert human normal skin-derived fibroblast to myoblast expressing Myogenin and MyoD1 gene”. Besides, the “conversion of fibroblast to osteoblast, ALP staining” value in test [11] is recorded as “converted human normal skin-derived fibroblast to osteoblast having high ALP activity”. Moreover, the “conversion of fibroblast to white adipocyte, Oil Red O staining” value in test [12] is given as “converted human skin-derived fibroblast to white adipocyte that accumulates a large amount of lipid droplets”. Further, the “conversion of fibroblast to chondrocyte, Alcian blue staining” value in [13] is recorded as “converted human skin-derived fibroblast to chondrocyte that produces a large amount of cartilage matrix”. Moreover, in [14], the “conversion of fibroblast to chondrocyte, Aggrecan and type II collagen mRNA” value is “converted human skin-derived fibroblast to chondrocyte that expresses Aggrecan gene and type II collagen gene”. For the same compound, in test [15], the “conversion of human fibroblast to Schwann cell, S100β and EGR2 mRNA” value was “converted human fibroblast to Schwann cell co-expressing S100β and EGR2”.

(Values after US11851681B2, “Cell preparation method” (KYOTO PREFECTURAL PUBLIC UNIVERSITY CORPORATION, priority 2015, dated 2023).)
